Where a name gives a salt, the structure may show the parent alone.
Experiments:
N-cNOS (Type 1) [1] = biological target: T1, N-cNOS (Type 1) (Rattus norvegicus, UniProt P29476); details: for selectivity for N-cNOS compared to E-cNOS, compared with the existing NOS inhibitors (L-EIN) / N-cNOS inhibitory potency compared with the existing NOS inhibitors (L-MIN): conclusion from Tables 49, 50 and 51; for Ratio of IC50 values E-cNOS/N-cNOS / Ratio of IC50 values iNOS/N-cNOS: index of selectivity
N-cNOS (Type 1) [2] = biological target: T1, N-cNOS (Type 1); assay: biochemical

Question: What does the source list for `CCN=C(N)Nc1ccc(N(C)C)c(CN)c1.Cl.Cl.Cl` [Example 267, N-(2-dimethylamino-5-(N′-ethylguanidino)phenylmethyl)amine trihydrochloride]?
Answer: selectivity for N-cNOS compared to E-cNOS, compared with the existing NOS inhibitors (L-EIN) (N-cNOS (Type 1) [1]): more selective inhibitory effect on N-cNOS than L-EIN; Ratio of IC50 values E-cNOS/N-cNOS (N-cNOS (Type 1) [1]): 502.8; Ratio of IC50 values iNOS/N-cNOS (N-cNOS (Type 1) [1]): 48.1; IC50 (N-cNOS (Type 1) [2]): 99.6 nM

Question: How did the “Ratio of IC50 values E-cNOS/N-cNOS” value (N-cNOS (Type 1) [1]) turn out when `CCN=C(N)Nc1cccc(CN)c1C.Cl.Cl` [Example 533, N-(3-(N′-ethylguanidino)-2-methylphenylmethyl)amine dihydrochloride] was run?
Answer: The value was 81.8.

Question: And the IC50 (N-cNOS (Type 1) [2])?
Answer: Its IC50 is 46.1 nM.

Question: How did the “Ratio of IC50 values E-cNOS/N-cNOS” value (N-cNOS (Type 1) [1]) turn out when `CCN(C)C(=N)Nc1cccc(CN)c1` [Example 305, N-(3-(N′-ethyl-N′-methylguanidino)phenylmethyl)amine dihydrochloride] was run?
Answer: The value was 31.7.

Question: What about the IC50 (N-cNOS (Type 1) [2]) of the same compound?
Answer: Its IC50 is 53.9 nM.

Question: What does the source list for `CCSC(=N)Nc1cccc(C2(N)CCCC2)c1.Cl.Cl` [Example 153, N-(1-(3-(S-ethylisothioureido)phenyl)cyclopentyl)amine dihydrochloride]?
Answer: Ratio of IC50 values E-cNOS/N-cNOS (N-cNOS (Type 1) [1]): 19.0; IC50 (N-cNOS (Type 1) [2]): 22.2 nM

Question: `CSC(=N)Nc1cccc(C(C)(C)N)c1.Cl.Cl` [Example 5, N-(1-methyl-1-(3-(S-methylisothioureido)phenyl)ethyl)amine dihydrochloride] was tested. Which “Ratio of IC50 values E-cNOS/N-cNOS” value (N-cNOS (Type 1) [1]) did it give?
Answer: Its value is 18.3.

Question: And the “Ratio of IC50 values iNOS/N-cNOS” value (N-cNOS (Type 1) [1])?
Answer: The value was 19.2.

Question: What about the IC50 (N-cNOS (Type 1) [2]) of the same compound?
Answer: Its IC50 is 23.4 nM.

Question: With `CCSC(=N)Nc1cccc(CN)c1Cl.Cl.Cl` [Example 137, N-(2-chloro-3-(S-ethylisothioureido)phenylmethyl)amine dihydrochloride] as the compound, how does the “Ratio of IC50 values E-cNOS/N-cNOS” value (N-cNOS (Type 1) [1]) read?
Answer: Its value is 68.3.

Question: What about the IC50 (N-cNOS (Type 1) [2]) of the same compound?
Answer: The IC50 was 7.1 nM.

Question: What does the source list for `CCSC(=N)Nc1cccc(C2(N)CC2)c1.Cl.Cl` [Example 167, N-(1-(3-(S-ethylisothioureido)phenyl)cyclopropyl)amine dihydrochloride]?
Answer: Ratio of IC50 values E-cNOS/N-cNOS (N-cNOS (Type 1) [1]): 27.5; IC50 (N-cNOS (Type 1) [2]): 13.3 nM

Question: What does the source list for `CCSC(=N)Nc1ccc(CCN)cc1.Cl.Cl` [Example 104, N-(4-(S-ethylisothioureido)phenylethyl)amine dihydrochloride]?
Answer: N-cNOS inhibitory potency compared with the existing NOS inhibitors (L-MIN) (N-cNOS (Type 1) [1]): more potent in inhibiting N-cNOS than L-MIN; Ratio of IC50 values E-cNOS/N-cNOS (N-cNOS (Type 1) [1]): 22.7; Ratio of IC50 values iNOS/N-cNOS (N-cNOS (Type 1) [1]): 16.6; IC50 (N-cNOS (Type 1) [2]): 5.2 nM

Question: What does the source list for `CC(C)(N)c1cccc(NC(N)=N[N+](=O)[O-])c1.Cl` [Example 7, N-(1-methyl-1-(3-(N′-nitroguanidino)phenyl)ethyl)amine hydrochloride]?
Answer: Ratio of IC50 values E-cNOS/N-cNOS (N-cNOS (Type 1) [1]): 5.6; Ratio of IC50 values iNOS/N-cNOS (N-cNOS (Type 1) [1]): 279.4; IC50 (N-cNOS (Type 1) [2]): 7.6 nM

Question: How did the “N-cNOS inhibitory potency compared with the existing NOS inhibitors (L-MIN)” value (N-cNOS (Type 1) [1]) turn out when `CCSC(=N)Nc1cccc(CN)c1.Cl.Cl` [Example 28, N-(3-(S-ethylisothioureido)phenylmethyl)amine dihydrochloride] was run?
Answer: The value was “more potent in inhibiting N-cNOS than L-MIN”.

Question: And the “Ratio of IC50 values iNOS/N-cNOS” value (N-cNOS (Type 1) [1])?
Answer: Its value is 5.9.

Question: And the IC50 (N-cNOS (Type 1) [2])?
Answer: The IC50 was 5.5 nM.

Question: How did the “Ratio of IC50 values iNOS/N-cNOS” value (N-cNOS (Type 1) [1]) turn out when `CC(N)c1cccc(NC(N)=N[N+](=O)[O-])c1.Cl` (stereo not drawn) [Example 14, N-(1-(3-(N′-nitroguanidino)phenyl)ethyl)amine hydrochloride] was run?
Answer: Its value is 623.9.

Question: What about the IC50 (N-cNOS (Type 1) [2]) of the same compound?
Answer: Its IC50 is 5.9 nM.

Question: With `CSC(=N)Nc1cccc(C2(N)CCCC2)c1.Cl.Cl` [Example 151, N-(1-(3-(S-methylisothioureido)phenyl)cyclopentyl)amine dihydrochloride] as the compound, how does the “Ratio of IC50 values E-cNOS/N-cNOS” value (N-cNOS (Type 1) [1]) read?
Answer: The value was 7.0.

Question: What about the IC50 (N-cNOS (Type 1) [2]) of the same compound?
Answer: The IC50 was 37.6 nM.

Question: For `CCSC(=N)Nc1ccc(OC)c(CN)c1OC.Cl.Cl` [Example 298, N-(2,6-dimethoxy-3-(S-ethylisothioureido)phenylmethyl)amine dihydrochloride], which “selectivity for N-cNOS compared to E-cNOS, compared with the existing NOS inhibitors (L-EIN)” value (N-cNOS (Type 1) [1]) is on record?
Answer: The value was “more selective inhibitory effect on N-cNOS than L-EIN”.

Question: What about the “Ratio of IC50 values E-cNOS/N-cNOS” value (N-cNOS (Type 1) [1]) of the same compound?
Answer: Its value is 113.8.

Question: And the IC50 (N-cNOS (Type 1) [2])?
Answer: Its IC50 is 36.4 nM.

Question: What does the source list for `CCN=C(N)Nc1cccc(C2(N)CCC2)c1.Cl.Cl` [Example 238, N-(1-(3-(N′-ethylguanidino)phenyl)cyclobutyl)amine dihydrochloride]?
Answer: Ratio of IC50 values E-cNOS/N-cNOS (N-cNOS (Type 1) [1]): 18.2; IC50 (N-cNOS (Type 1) [2]): 63.9 nM

Reference: patent US6534546B1 (Chugai Seiyaku Kabushiki Kaisha, priority 1994, dated 2003)
